Source: PubChem BioAssay AID1347071 (National Center for Advancing Translational Sciences (NCATS), 2019)
“And” between values parts separate entries of the source, which are not always exact repeats. Identical values can stand only once. Hit rate of the full screen: of about 410,000 compounds, about 260 (0.063%) were called active. The shares of active, inactive and inconclusive entries below differ from those in the screen. The call rests on the fitted dose curve; in most records, active means well fitted activation curve with a large enough effect; inconclusive means small, poorly fitted or top-dose-only effect; inactive means no such curve, though single readings can be large or run the other way. A potency beside an inconclusive call is a rough fit, not a confirmed value.

assay: qHTS for compounds that reverse cellular toxicity of Amyloid beta (A-beta) peptide in yeast: Primary Screen; details: yeast expressing A-beta42, growth rescue, OD600, 48 h; growth rescue: at 46.1 µM (top of the series), 0% DMSO, 100% iron-clioquinol control; further: nearly all actives have a fitted effect of over 55% in size
Method in brief: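 Yeast growth medium received pinned compounds, then yeast cells expressing toxic A-beta were added; plates incubated at 30 C for 48 hr. Growth read as absorbance at 600 nm, normalized to DMSO and equimolar FeCl3 plus clioquinol controls.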
Potency means the concentration at half of the fitted maximal effect; tags describe the fitted curve by direction and shape.

Row | Structure (SMILES) | Potency | growth rescue
1 | COc1ccccc1OCCn1c(C(C)Oc2ccccc2)nc2ccccc21 (configuration not stated) | inconclusive: 35.5 µM [activator, single point] | –
2 | Cc1ccc(S(=O)(=O)c2c(C)nn(C(C)(C)C)c2OC(=O)CC(C)C)cc1 | inconclusive: 11.2 µM [activator, partial curve, poor fit] | –
3 | O[C@H]1C[C@H](c2ccc(Cl)cc2)N(CC2CCCCC2)C[C@@H]1n1cc(-c2ccc(F)cc2)nn1 | inconclusive: 17.8 µM [activator, single point] | –
4 | CCOCCC(=O)Nc1ncc(S(=O)(=O)c2ccc([N+](=O)[O-])cc2)s1 | – | inactive: 10%
5 | O=C1NC2(CCCCCC2)C(=O)N1Cc1cccc(Cl)c1 | inconclusive: 20 µM [activator, partial curve, poor fit] | –
6 | NC(=S)N/N=C1\CCOc2ccc(Cl)cc21 | inconclusive: 35.5 µM [activator, single point] | –
7 | CC(C)c1cc(C(=O)Nc2cccc(C(F)(F)F)c2)no1 | inconclusive: 5.01 µM [activator, full curve] | –
8 | NNC(=S)Nc1c(Br)cc(F)cc1Br | inconclusive: 31.6 µM [activator, single point] | –
9 | S=c1[nH]nc(COc2cccc(Cl)c2)n1Cc1ccccc1 | inconclusive: 12.6 µM [activator, single point] | –
10 | C=CCOc1c(Cl)cc(C(=S)N2CCCC2)cc1OCC | inconclusive: 12.6 µM [activator, partial curve] | –
11 | O=S(=O)(c1ccc(F)cc1)N1CCC(n2c(C(F)(F)F)nc3cccnc32)CC1 | – | inactive: 3.86%
12 | CCOc1ncccc1C(=O)OCC(=O)Nc1nnc(-c2ccccc2)o1 | inconclusive: 20 µM [activator, single point] | –
13 | CCc1nnc(NS(=O)(=O)c2ccc(NC(=O)c3ccco3)cc2)s1 | inconclusive: 11.2 µM [activator, partial curve, poor fit] | –
14 | COc1ccccc1Nc1nc(N)nc(CSC(=S)N2CCCCC2)n1 | inconclusive: 20 µM [activator, single point] | –
15 | CCOC(=O)Cc1csc(NC(=O)COc2ccc(C)c(C)c2)n1 | inconclusive: 15.8 µM [activator, single point] | –
16 | Cc1[nH]n(-c2ccccc2)c(=O)c1/C=N/N1C(=O)c2ccc3c4c(ccc(c24)C1=O)CC3 | active: 8.91 µM | –
17 | N#Cc1ccc(-c2ccc(OCC(=O)NCCCN3CCCC3=O)cc2)cc1 | – | inactive: 9.65%
18 | Cc1cccc(OCC(=O)Nc2ccc(Cl)c(-c3nc4ccccc4[nH]3)c2)c1 | – | inactive: 10.3%
19 | CCOc1ccc(S(=O)(=O)NCc2ccc(Cl)cc2)c2cccnc12 | – | inactive: 15.6%
20 | CCc1nn(Cc2cccc(F)c2)c(=O)c2cc3cc(C)ccc3n12 | – | inactive: -16.9%
21 | COc1ccccc1NC(=O)Cc1ccc(-c2ccccc2)cc1 | – | inactive: 11%
22 | O=C(CCCc1cccs1)Nc1nc2c(s1)CCCC2 | inconclusive: 11.2 µM [activator, single point] | –
23 | CN1CCC[C@H]1CCNc1ccc2c(=O)c3ccccc3n(C)c2c1 | – | inactive: 9.42%

Row | Structure (SMILES) | Potency | growth rescue
24 | COc1ccc(-c2nn(-c3ccccc3)cc2C(=O)NC(=S)NNC(=O)c2ccncc2)cc1 | inconclusive: 10 µM [activator, partial curve, poor fit] | –
25 | Cc1n[nH]c(=S)n1/N=C/c1cccc(OCc2ccccc2)c1 | inconclusive: 35.5 µM [activator, single point] | –
26 | O=C(Oc1coc(CSc2ncccn2)cc1=O)c1ccc(Br)o1 | inconclusive: 3.98 µM [activator, partial curve] | –
27 | COC(=O)c1ccc(CSc2ccccc2NC(=S)Nc2cccc(SC)c2)o1 | inconclusive: 12.6 µM [activator, single point] | –
28 | COC(=O)c1c(C)sc(-c2c(-c3ccc4c(c3)OCCO4)[nH]c3[nH]c(=O)[nH]c(=O)c23)c1O | inconclusive: 1 µM [activator, full curve, poor fit] | –
29 | CCCS(=O)(=O)N1CCc2ccc(NC(=O)c3ccccc3Cl)cc2C1 | inconclusive: 4.47 µM [activator, partial curve, poor fit] | –
30 | CC(C)c1cccc(OCC(=O)Nc2ccc(S(=O)(=O)Nc3ccccn3)cc2)c1 | inconclusive: 5.62 µM [activator, single point] | –
31 | OC(Cn1cncn1)c1ccc(Cl)cc1 (configuration not stated) | – | inactive: 0.24%
32 | S=C(Nc1ccccc1)Nc1nccs1 | inconclusive: 25.1 µM [activator, single point] | –
33 | C=C(C)CNC(=S)N/N=C1\CCCCc2ccccc21 | inconclusive: 4.47 µM [activator, partial curve, poor fit] | –
34 | COc1ccc(N2CCN(S(=O)(=O)CCNC(=O)COc3cccc(OC)c3)CC2)cc1 | inactive | –
35 | Cc1[nH]n(-c2ccccc2)c(=O)c1/C=N/N1C(=O)c2cccc3cccc(c23)C1=O | inconclusive: 17.8 µM [activator, single point] | –
36 | Cc1ccc(/C=C2\NC(=S)NC2=O)cc1[N+](=O)[O-] | inconclusive: 6.31 µM [activator, single point] | –
37 | CCn1c(Cn2nnc(-c3ccccc3)n2)nnc1SCc1ccc(Cl)c(Cl)c1 | inconclusive: 4.47 µM [activator, full curve, poor fit] | –
38 | CC(C)(C)C(c1nc2ccccc2[nH]1)n1c(-c2cc(Cl)cc(Cl)c2)nc2ccccc21 (configuration not stated) | inconclusive: 22.4 µM [activator, single point] | –
39 | Cc1nn(-c2ccccc2)c2sc(C(=O)OCc3nnc(-c4ccccc4)o3)cc12 | – | inactive: -6.31%
40 | Cc1ccc(NS(=O)(=O)c2c(C)nc3sccn3c2=O)c(C)c1 | inconclusive: 15.8 µM [activator, partial curve, poor fit] | –
41 | Cc1ccc(C(=O)NNC(=S)NC(=O)COc2ccccc2)cc1 | inconclusive: 22.4 µM [activator, single point] | –
42 | CCn1c2ccccc2c2cc(/C=C(/C#N)C(N)=S)ccc21 | – | inactive: 23.8%
43 | CCC1=Nc2cc(C(=O)NCc3ccco3)ccc2Sc2ccccc21 | – | inactive: 4.31%
44 | Cc1c(/C(Cc2ccccc2)=N/O)c2ccccc2n1C | inconclusive: 10 µM [activator, partial curve, poor fit] | –
45 | Cc1ccc(CNC(=O)c2nnc(Cc3cccc(F)c3)o2)cc1 | – | inactive: 1.29%
46 | COc1ccc(-c2cc(-c3ccc(OC)cc3)nc(-c3ccc4c(c3)NC(=O)CO4)c2)cc1 | inconclusive: 11.2 µM [activator, single point] | –

Row | Structure (SMILES) | Potency | growth rescue
47 | O=C1ON=C(c2ccccc2)/C1=C/c1ccco1 | inconclusive: 2.51 µM [activator, partial curve, poor fit] | –
48 | CCC(C)N1CNc2c(c(=O)[nH]c(=S)n2-c2cccc(C)c2)C1 (configuration not stated) | – | inconclusive: -14.3% [activator]
49 | CC(C)=C1C(=O)NN(c2ccc(C)c(Cl)c2)C1=O | inconclusive: 12.6 µM [activator, partial curve, poor fit] | –
50 | COc1ccc(NC(=O)C(c2ccc(C)cc2)N(C)C(=O)Cc2cccs2)cc1 (configuration not stated) | inconclusive: 2.24 µM [activator, full curve, poor fit] and inconclusive: 2.51 µM [activator, full curve] | –
51 | O=C(Nc1nccs1)C12CC3CC(C1)CC(C(=O)Nc1nccs1)(C3)C2 | inconclusive: 10 µM [activator, partial curve] | –
52 | CCOC(=O)CSc1nc2ccccc2c(=O)n1CCc1ccc(OC)c(OC)c1 | – | inactive: -14.7%
53 | CCCN1C(=O)C(O)(CC(=O)c2ccc(CC)cc2)c2ccccc21 (configuration not stated) | – | inactive: 20.7%
54 | Cc1ccc(S(=O)(=O)N2CCOCC2)cc1NC(=O)CSc1nnc(NC2CC2)s1 | inconclusive: 35.5 µM [activator, single point] | –
55 | O=C(c1ccccc1F)N1CCN(c2cccc(C(F)(F)F)c2)CC1 | – | inactive: 8.25%
56 | COC(=O)CSc1nc(-c2ccc(F)cc2)cc(C(F)(F)F)n1 | inconclusive: 3.55 µM [activator, partial curve, poor fit] | –
57 | Cc1cc(C(=O)COC(=O)c2ccc(O)cc2)c(C)n1CC1COc2ccccc2O1 (configuration not stated) | inconclusive: 6.31 µM [activator, single point] | –
58 | Cc1ccc(S(=O)(=O)N2CCCCC2)cc1NC(=O)c1cncc(Br)c1 | – | inactive: -2.72%
59 | CCCCCCN1C[C@@H](n2cc(-c3ccc(F)cc3)nn2)[C@H](O)C[C@@H]1c1ccc(OC)cc1 | inconclusive: 10 µM [activator, partial curve, poor fit] | –
60 | CC(C)(C)c1ccc(C(=O)N2CCC2(C)C(=O)Nc2ccc3[nH]ncc3c2)cc1 (configuration not stated) | inconclusive: 4.47 µM [activator, partial curve] | –
61 | COc1ccc(Cc2n[nH]c(=S)o2)cc1 | inconclusive: 3.98 µM [activator, partial curve] | –
62 | Cc1csc(N/N=C/c2ccccn2)n1 | inconclusive: 25.1 µM [activator, single point] | –
63 | Cc1c(OC(C)C(=O)NCc2cccnc2)ccc2c3c(c(=O)oc12)CCCC3 (configuration not stated) | inconclusive: 6.31 µM [activator, single point] | –
64 | N#CCCN(C(=O)COC(=O)C1CCN(c2ccc(C(F)(F)F)cn2)CC1)c1ccc(F)cc1 | inconclusive: 12.6 µM [activator, partial curve, poor fit] | –
65 | CCN(CC)c1nc(SCC(=O)O)nc(N(CC)CC)n1 | – | inactive: 7.51%
66 | COc1cccc(NC(=S)NCc2ccccc2)c1 | inconclusive: 35.5 µM [activator, single point] | –
67 | CCOC(=O)C1CCCc2c1[nH]c1ccc(Cl)cc21 (configuration not stated) | inconclusive: 25.1 µM [activator, single point] | –
